Measured values as given in PubChem BioAssay AID1745853 (National Center for Advancing Translational Sciences (NCATS), 2022).
This is one part of the list. The main result of the screen is listed elsewhere. These columns were measured beside it and carry no call.

Key:
Assay in all cases: Primary Screen for Target Class Profiling of Small Molecule Inhibitors of Methyltransferases
[1] = molecular target: Glycine N-methyltransferase (Homo sapiens) (UniProt Q14749); conditions: purified enzyme, MTase-Glo SAH luminescence; measured here: GNMT inhibition; at 40 µM; stronger effect = lower value
From the text: (§1) PI: Matthew D. Hall Ph.D. and Quinlin M. Hanson Ph.D.
(§2) National Center for Advancing Translational Sciences (NCATS)
(§3) National Institute of Health (NIH), Rockville, MD
(§4) Target class profiling (TCP) is a chemical biology approach amenable to investigating understudied biological targets. TCP is achieved by developing a generalizable assay platform and applying it to screen a curated set of compound libraries against representative members of a target class. Small molecule methyltransferases (SMMTase) are a subclass of methyltransferase that act on metabolites to modulate signaling pathways, metabolize xenobiotics, or balance the available methyl pool. We screened four curated libraries totaling 27,574 unique compounds against the SMMTases nicotinamide N-methyltransferase (NNMT), phenylethanolamine N-methyltransferase (PNMT), histamine N-methyltransferase (HNMT), glycine N-methyltransferase (GNMT), catechol O-methyltransferase (COMT), and guanidinoacetate N-methyltransferase (GAMT). The data generated by this TCP can be leveraged for informed tool molecule development. For example, in the associated publication we identified a chemotype of HNMT-selective inhibitors. Additionally, we identified a putative SMMTase-selective inhibitor with potential as a tool molecule for studying broader methyltransferase biology.
(§5) High-through put screening assays were developed at the National Center for Advancing Translational Science (NCATS) for the enzymes NNMT, PNMT, HNMT, GNMT, COMT, and GAMT. Enzymatic activity was measured as a function of SAM cofactor conversion using the MTase Glo kit (Promega) for all enzymes. All assays were performed in 1536-well format with substrates and SAM concentrations at KM values. Enzyme concentration and assay timing were optimized for 10-20% SAM conversion. Initial screening of 27,574 compounds was done as single-point assays using the highest compound concentration (40 uM). […] These compounds were replated in 11-point dose response and assayed against NNMT, PNMT, HNMT, GNMT, COMT, GAMT, and a counter-assay. The IC50 and efficacy (maximal response) values were determined for each dose-response curve. These values are also accounted for in the area under the curve (AUC) values.
(§6) PROTOCOL TABLE (as described by Inglese J, Shamu CE and Guy RK. 2007)
(§7) SEQUENCE No. (e.g., 1, 2, 3, etc.); […] (e.g., Cells, Incubation, Reagent, etc.); VALUE; DESCRIPTION.
(§8) 1; Reagent; 2 uL; SMMTase Enzyme (2x) in reaction buffer, columns 1- 48.
(§9) 2; Reagent; 1 uL; SAM (4x) in reaction buffer, columns 1-48.
(§10) 3; Controls; 23 nL; DMSO in column 4; sinefungin in DMSO (0 uM - 40 uM) in 7-point 1:2 dilution series (n = 2) in column 2.
(§11) 4; Compounds; 23 nL; Columns 5-48.
(§12) 5; Reagent; 1 uL; Substrate (4x) in reaction buffer, columns 2-48.
(§13) 6; Time; 20-30 min; Incubation.
(§14) 7; Reagent; 1 uL; MTase-Glo reagent (5X), columns 1-48.
(§15) 8; Time; 30 min; Incubation.
(§16) 9; Reagent; 5 uL; MTase-Glo Detection reagent, columns 1-48.
(§17) 10; Time; 30 min; Incubation, luminescence evolution.
(§18) 11; Detection; Luminescence; ViewLux uHTS Microplate Imager (PerkinElmer).
(§19) NOTES (numbers refer to Sequence numbers above)
(§20) 1, 2, 5. White Medium Binding Greiner 1536-well plates (Cat #789175-F, Greiner Bio-One, Monroe, NC); Reaction buffer: 50 mM Tris, pH 8.0, 3 mM MgCl2, 1 mM EDTA, 50 mM NaCl, 1 mM DTT, and 0.1 mg/mL BSA. Evaporation was prevented by covering assay plates with metal lids containing holes to allow gas diffusion.
(§21) 1. Six SMMTase were profiled: HNMT, GNMT, PNMT, COMT, NNMT, GAMT
(§22) 5. The corresponding substrate was used for each enzyme: HNMT - 5.3 uM Histamine; GNMT - >500 uM Glycine; PNMT - 16.2 uM Norephinephrine; COMT - 13.7 uM Norephinephrine; NNMT - 3.8 uM Nicotinamide; GAMT - 2.5 uM Guanidinoacetate.6, 8, 10. Room temperature
(§23) 6. Final reaction conditions: 10 nM COMT, 5 uM SAM, 15 uM norepinephrine, 50 mM Tris, pH 8.0, 3 mM MgCl2, 1 mM EDTA, 50 mM NaCl, 1 mM DTT, and 0.1 mg/mL BSA; refer to tables 2 and S1 for specific timing.
8. […]

[2] = molecular target: Guanidinoacetate N-methyltransferase (Homo sapiens) (UniProt Q14353); conditions: purified enzyme, MTase-Glo SAH luminescence; measured here: GAMT inhibition; at 40 µM; stronger effect = lower value
From the text: as §1, §2, §3, §4, §5, §6, §7, §8, §9, §10, §11, §12, §13, §14, §15, §16, §17, §18, §19, §20, §21, §22, §23
8. […]

[3] = molecular target: Histamine N-methyltransferase (Homo sapiens) (UniProt P50135); conditions: purified enzyme, MTase-Glo SAH luminescence; measured here: HNMT inhibition; at 40 µM; stronger effect = lower value
From the text: as §1, §2, §3, §4, §5, §6, §7, §8, §9, §10, §11, §12, §13, §14, §15, §16, §17, §18, §19, §20, §21, §22, §23
8. […]

[4] = molecular target: Nicotinamide N-methyltransferase (Homo sapiens) (UniProt P40261); conditions: purified enzyme, MTase-Glo SAH luminescence; measured here: NNMT inhibition; at 40 µM; stronger effect = lower value
From the text: as §1, §2, §3, §4, §5, §6, §7, §8, §9, §10, §11, §12, §13, §14, §15, §16, §17, §18, §19, §20, §21, §22, §23
8. […]

[5] = molecular target: Phenylethanolamine N-methyltransferase (Homo sapiens) (UniProt P11086); conditions: purified enzyme, MTase-Glo SAH luminescence; measured here: PNMT inhibition; at 40 µM; stronger effect = lower value
From the text: as §1, §2, §3, §4, §5, §6, §7, §8, §9, §10, §11, §12, §13, §14, §15, §16, §17, §18, §19, §20, §21, §22, §23
8. […]
% is scaled to controls: 0 for no effect and ±100 for the full control effect.

Row | SMILES | activity change, negative = inhibition [1] | activity change, negative = inhibition [2] | activity change, negative = inhibition [3] | activity change, negative = inhibition [4] | activity change, negative = inhibition [5]
1 | CCOc1cccc(C2c3cccn3-c3sc4c(c3CN2C(=O)Nc2ccc3c(c2)OCCO3)CCCC4)c1 (stereo not given) | -1.05% | 2.08% | 1.62% | -4.99% | 2.55%
2 | COc1ccc(Cl)cc1NC(=O)C1CN(S(C)(=O)=O)CC12CCCCC2 (stereo not given) | -0.896% | 1.88% | -0.172% | -5.73% | 1.62%
3 | CC1CCCCC1NC(=O)C1(C)Cn2c(nc3ccccc32)C(=O)N1Cc1ccccc1F (stereo not given) | 1.29% | 5.47% | 3.11% | 4.31% | -4.45%
4 | O=C(NCc1ccccc1Cn1cccn1)c1ccc2cccc(F)c2n1 | -19.5% | -10.3% | -6.77% | -17.2% | -13.3%
5 | CCOc1ccc(CCNC(=O)CCc2nnc3n(Cc4ccc(Cl)cc4)c(=O)c4ccccc4n23)cc1 | -2.03% | -4.08% | 9.78% | -0.658% | -4.62%
6 | CC(C)OCCCNC(=O)C1c2c(n(C)c3ccccc23)SCC(=O)N1CCC1=CCCCC1 (stereo not given) | 8.64% | 0% | 5.26% | 1.53% | 9.19%
7 | O=C(CCn1ccc2cc(S(=O)(=O)N3CCCC3)ccc21)NC1CCCc2ccccc21 (stereo not given) | -2.56% | 1.34% | 2.96% | 1.02% | -0.275%
8 | COC(=O)c1cc2n(n1)CC(C)(C(=O)NC1CCC(C)CC1)N(Cc1ccc(OC)cc1OC)C2=O (stereo not given) | 5.12% | 3.64% | 10.1% | -47.8% | 2.18%
9 | COc1cccc(CNC(=O)CCNc2cnc3cnccn23)c1 | -2.24% | 0.124% | 0.861% | -0.752% | 3.74%
10 | O=C(NCc1nnc2ccccn12)[C@H]1CNC[C@H](C(=O)N2CCOCC2)C1 | -6.08% | -8.1% | -6.16% | -9.19% | -8%
11 | Cc1ccc(C(=O)Cn2nc3n(CC(C)C)c(=O)c4ccc(C(=O)NC5CCCC5)cc4n3c2=O)c(C)c1 | -4.14% | 1.08% | -0.654% | -2.23% | -0.417%
12 | NC(N)=NCCC[C@H](N)C(=O)O | -8.69% | 4.13% | -0.995% | -4.19% | 2.95%
13 | CCc1ccc(S(=O)(=O)c2nnn3c2nc(NCCOC)c2cc(Cl)ccc23)cc1 | -7.53% | 0% | -0.319% | -1.31% | -3.24%
14 | CC(C)n1nccc1S(=O)(=O)N[C@@H]1[C@@H](Cc2ccccc2)[C@H]2OCC[C@@H]12 | 0.836% | -0.772% | 3.35% | -3.34% | 9.43%
15 | Cc1ccoc1C(=O)N1CC[C@@H]2CN(S(C)(=O)=O)[C@@H]2C1 | -3.75% | -1.41% | 0.965% | 1.52% | 2.06%
16 | CN(C)Cc1nnc(C2CCN(Cc3cnc(-c4ccccn4)nc3)CC2)n1C | -1.76% | -4.91% | -8.53% | -9.72% | 8.86%
17 | O=C(NCc1nc(-c2ncccn2)no1)C1CCCN(Cc2ccco2)C1 (stereo not given) | -0.368% | -1.5% | 0.562% | -3.01% | -2.41%
18 | O=C(Nc1ccc(Oc2ccnc3[nH]ccc23)c(F)c1)c1cccn(-c2ccc(F)cc2)c1=O | 4.79% | 4.19% | 5.22% | -26.4% | 4.83%
19 | C=C(C)C1Cc2c(ccc3c2OCC(c2ccc(O)cc2O)C3)O1 (stereo not given) | -6.62% | -5.35% | 0.443% | -15.5% | -9.28%
20 | COc1ccc(S(=O)(=O)N2CCC3(CC2)CC(OC)CCO3)cc1 (stereo not given) | -3.69% | 3.93% | 2.02% | 0.315% | -2.23%
21 | O=C1CCN(C(=O)Nc2ccccc2F)CCCC(C(=O)NCc2ccncc2)CCN1 (stereo not given) | -0.606% | 1.47% | 1.09% | 0.263% | 1.28%
22 | CC1CCCC(O)CC(=O)c2c(O)cc(O)cc2CC(=O)O1 (stereo not given) | 0% | 6.86% | 10.4% | -2.69% | 7.26%
23 | O=C(CCn1ccc2cc(S(=O)(=O)N3CCCC3)ccc21)NCc1cccnc1 | -4.98% | 0% | 1.8% | -3.63% | -7.27%
24 | COCC(NC(=O)c1ccc2nc(C3CCCCC3)oc2c1)c1ccnn1C (stereo not given) | -14% | -12.4% | -24.5% | -15.8% | 4.08%
25 | CCc1cc2c(cc3n2CC(C)(C(=O)NC2CCC(C)CC2)N(Cc2ccccc2Cl)C3=O)s1 (stereo not given) | 2.17% | 0.158% | 7.42% | 1.63% | 1.73%
26 | O=C(N[C@H]1CCN(C(=O)c2cc(C(F)(F)F)cc(C(F)(F)F)c2)[C@H](Cc2ccc(Cl)cc2)C1)c1ccnc2ccccc12 | 1.09% | 0.274% | 11.3% | -17.8% | 1.5%
27 | c1cc(-c2ccnc3nc(C4CCC4)nn23)ccn1 | -3.24% | 1.19% | -0.172% | -5.28% | -1.19%
28 | COc1cccc(CNC(=O)Cn2nc3n(Cc4ccc(C)cc4)c(=O)c4ccccc4n3c2=O)c1 | 4.05% | 0.325% | 7.5% | 3.09% | 3.71%
29 | CC(C)NC(=O)c1ccc2c(=O)n(Cc3ccccc3)c3nnc(SCc4cccc(F)c4)n3c2c1 | 4.18% | 0.159% | 7.47% | 4.46% | 6.49%
30 | Cn1cnc2c1c(=O)[nH]c(=O)n2C | -5.35% | 2.63% | 1.67% | -1.97% | 7.55%
